# Laboratory results reported in article PMC6835202.
# Protein sequences, listed by entry. Tags and fused reporters are not part of them.
# UniProt Q60929: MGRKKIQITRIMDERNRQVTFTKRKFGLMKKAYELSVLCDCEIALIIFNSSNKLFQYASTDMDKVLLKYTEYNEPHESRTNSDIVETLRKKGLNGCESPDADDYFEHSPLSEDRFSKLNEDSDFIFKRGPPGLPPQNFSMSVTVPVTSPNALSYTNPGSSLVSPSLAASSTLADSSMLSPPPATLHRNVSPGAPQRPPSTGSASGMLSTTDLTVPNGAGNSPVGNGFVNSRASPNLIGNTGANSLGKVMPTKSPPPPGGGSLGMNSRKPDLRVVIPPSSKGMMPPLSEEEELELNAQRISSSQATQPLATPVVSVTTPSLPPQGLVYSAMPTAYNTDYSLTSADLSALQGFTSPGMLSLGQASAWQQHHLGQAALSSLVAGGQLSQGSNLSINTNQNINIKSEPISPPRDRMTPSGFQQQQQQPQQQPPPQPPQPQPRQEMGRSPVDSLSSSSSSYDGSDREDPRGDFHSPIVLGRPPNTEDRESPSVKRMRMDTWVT
# UniProt Q6NZM9: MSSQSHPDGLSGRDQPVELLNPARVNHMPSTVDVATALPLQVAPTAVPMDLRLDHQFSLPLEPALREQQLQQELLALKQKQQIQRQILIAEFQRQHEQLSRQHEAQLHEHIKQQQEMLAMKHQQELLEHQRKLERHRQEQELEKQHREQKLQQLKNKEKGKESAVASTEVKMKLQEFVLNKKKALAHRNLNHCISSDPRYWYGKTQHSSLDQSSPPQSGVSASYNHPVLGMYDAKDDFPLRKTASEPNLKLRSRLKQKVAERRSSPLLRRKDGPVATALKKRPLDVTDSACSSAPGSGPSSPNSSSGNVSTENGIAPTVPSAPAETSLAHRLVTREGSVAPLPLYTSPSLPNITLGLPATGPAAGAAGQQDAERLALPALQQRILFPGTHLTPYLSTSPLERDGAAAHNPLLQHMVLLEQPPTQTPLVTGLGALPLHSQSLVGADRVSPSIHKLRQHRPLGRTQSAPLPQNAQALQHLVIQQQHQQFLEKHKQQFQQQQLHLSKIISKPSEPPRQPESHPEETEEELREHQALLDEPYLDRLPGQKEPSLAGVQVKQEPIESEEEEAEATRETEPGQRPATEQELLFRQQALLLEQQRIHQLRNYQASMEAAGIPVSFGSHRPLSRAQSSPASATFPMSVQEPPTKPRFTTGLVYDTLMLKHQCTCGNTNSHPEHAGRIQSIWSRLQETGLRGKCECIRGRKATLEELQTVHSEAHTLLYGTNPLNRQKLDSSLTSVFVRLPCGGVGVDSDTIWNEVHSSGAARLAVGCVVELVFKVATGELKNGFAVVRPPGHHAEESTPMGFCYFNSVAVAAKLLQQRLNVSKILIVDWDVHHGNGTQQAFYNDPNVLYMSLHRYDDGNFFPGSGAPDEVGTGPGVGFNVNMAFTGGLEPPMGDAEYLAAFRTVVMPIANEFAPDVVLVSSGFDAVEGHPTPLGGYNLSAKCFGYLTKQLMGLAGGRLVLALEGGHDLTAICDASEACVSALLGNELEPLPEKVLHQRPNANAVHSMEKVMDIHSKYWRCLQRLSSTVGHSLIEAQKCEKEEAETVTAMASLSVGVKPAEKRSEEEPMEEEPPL
# UniProt Q9UKV0: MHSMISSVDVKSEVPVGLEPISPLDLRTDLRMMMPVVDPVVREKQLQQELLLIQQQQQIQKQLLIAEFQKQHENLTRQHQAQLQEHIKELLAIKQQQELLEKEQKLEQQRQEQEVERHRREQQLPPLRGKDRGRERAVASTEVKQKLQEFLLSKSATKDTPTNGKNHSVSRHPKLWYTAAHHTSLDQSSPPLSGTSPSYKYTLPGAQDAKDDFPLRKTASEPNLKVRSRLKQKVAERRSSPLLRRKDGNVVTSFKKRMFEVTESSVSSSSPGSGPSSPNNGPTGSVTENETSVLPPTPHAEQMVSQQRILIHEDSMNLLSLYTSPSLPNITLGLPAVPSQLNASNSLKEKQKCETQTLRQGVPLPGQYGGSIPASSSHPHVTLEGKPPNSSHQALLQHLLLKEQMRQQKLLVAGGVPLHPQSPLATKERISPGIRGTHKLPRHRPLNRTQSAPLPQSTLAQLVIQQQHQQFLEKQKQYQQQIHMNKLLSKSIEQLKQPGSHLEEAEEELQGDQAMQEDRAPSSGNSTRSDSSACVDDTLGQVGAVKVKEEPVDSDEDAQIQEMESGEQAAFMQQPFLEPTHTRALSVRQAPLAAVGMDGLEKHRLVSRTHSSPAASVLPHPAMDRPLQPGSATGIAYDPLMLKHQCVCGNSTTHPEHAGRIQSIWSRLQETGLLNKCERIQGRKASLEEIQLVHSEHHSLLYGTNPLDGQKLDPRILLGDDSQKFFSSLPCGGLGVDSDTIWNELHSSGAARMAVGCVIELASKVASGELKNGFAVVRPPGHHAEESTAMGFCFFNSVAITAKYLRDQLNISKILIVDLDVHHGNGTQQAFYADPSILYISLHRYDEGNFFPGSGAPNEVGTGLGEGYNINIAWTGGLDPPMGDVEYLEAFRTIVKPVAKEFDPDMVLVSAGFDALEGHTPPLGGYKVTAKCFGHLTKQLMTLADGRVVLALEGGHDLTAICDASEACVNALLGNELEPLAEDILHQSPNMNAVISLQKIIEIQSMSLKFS
# No constants are given. Whether binding was seen depends on the method and setting. Binding seen in cells or lysates may run through a third protein. Some entries that bind do so weakly or less than the wild type. For part of these data: Where a sequence is shown, tags or fusion partners need not be part of it.
# Assays:
# [1] = target: MEF2a, endogenous in mouse ventricular samples (mouse (endogenous in ventricular samples)) (UniProt Q60929); test: co-IP; mouse ventricular samples lysed in IP lysis buffer; anti-MEF2a antibodies (or IgG) with protein A/G beads overnight; Western blotting
# [2] = target: NCoR1-flag expressed from lentivirus in NRVMs (UniProt Q60974); test: co-IP; NRVMs infected with NCoR1-flag lentivirus and then HDAC4, HDAC5-GFP or HDAC9 adenovirus; MEF2a not overexpressed
# [3] = target: NCoR1-flag expressed from lentivirus in NRVMs (UniProt Q60974); test: co-IP; NRVMs infected with NCoR1-flag lentivirus and then MEF2a-HA lentivirus and HDAC5-GFP adenovirus
# [4] = target: full-length NCoR1-Flag (nuclear receptor corepressor 1) (UniProt Q60974); test: co-IP; HEK293FT cells transfected with NCoR1-Flag (full length or truncated) and MEF2a-HA (full length or truncated); Western blotting
# [5] = target: T1, NCoR1 receptor interaction domains (RIDs) (1939-2453)-Flag (UniProt Q60974); test: as above
# T1 sequence: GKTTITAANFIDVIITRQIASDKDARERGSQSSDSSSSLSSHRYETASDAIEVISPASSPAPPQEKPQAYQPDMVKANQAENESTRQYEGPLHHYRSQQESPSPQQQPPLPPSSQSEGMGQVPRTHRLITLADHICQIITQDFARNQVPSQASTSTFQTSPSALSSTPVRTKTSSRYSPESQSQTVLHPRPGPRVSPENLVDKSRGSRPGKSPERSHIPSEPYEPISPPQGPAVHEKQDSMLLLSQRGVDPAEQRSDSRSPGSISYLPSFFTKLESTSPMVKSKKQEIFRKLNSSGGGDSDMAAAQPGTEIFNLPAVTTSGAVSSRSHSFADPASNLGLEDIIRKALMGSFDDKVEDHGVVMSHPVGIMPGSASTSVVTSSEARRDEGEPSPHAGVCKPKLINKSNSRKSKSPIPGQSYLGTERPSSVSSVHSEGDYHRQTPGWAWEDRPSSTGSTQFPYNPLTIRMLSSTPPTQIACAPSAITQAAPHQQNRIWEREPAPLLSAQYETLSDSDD
substance,measurement,setting,value
"HDAC4, endogenous in mouse ventricular samples (from UniProt Q6NZM9 1-1076)",binding,[1],binds
HDAC9 expressed from adenovirus in NRVMs (from UniProt Q9UKV0 1-1011),binding,[2],no binding
MEF2a-HA expressed from lentivirus in NRVMs (from UniProt Q60929 1-498),binding,[3],binds
"NCoR1, endogenous in mouse ventricular samples (from UniProt Q60974 1-2453)",binding,[1],binds
full-length MEF2a-HA (myocyte enhancer factor 2a) (from UniProt Q60929 1-498),binding,[4],binds
same,binding,[5],binds
